Assay results reported in the antibiotic and cytotoxicity screens of Wong et al. (2023).
The other results are listed elsewhere or left out.

Assays:
[1] = tested on: HSkMC (human skeletal muscle cells); assay: cytotoxicity call (relative viability < 0.9); settings: 10 µM
[2] = tested on: HepG2; assay: cytotoxicity call (relative viability < 0.9); settings: 10 µM
[3] = tested on: S. aureus RN4220; assay: growth inhibition call (relative growth <= 0.2); settings: 50 µM

SMILES	cytotoxicity call [1]	cytotoxicity call [2]	growth inhibition call [3]
Cc1ccc(S(=O)(=O)Nc2ccc3c(c2)CC(=O)N([C@@H](C)CO)C[C@H](C)[C@H](CN(C)C(=O)Nc2cccc4ccccc24)O3)cc1	inactive	inactive	inactive
O=C(CCCCCCNC(=O)c1ccc(NCc2cn(Cc3ccc(C(=O)c4ccc(Cn5cc(CNc6ccc(C(=O)NCCCCCCC(=O)NO)cc6)nn5)cc4)cc3)nn2)cc1)NO	inactive	inactive	inactive
C[C@@H]1CN([C@H](C)CO)S(=O)(=O)c2ccc(C#Cc3ccccc3F)cc2O[C@@H]1CN(C)C(=O)Cc1cccnc1	inactive	inactive	inactive
C[C@@H]1CN([C@H](C)CO)S(=O)(=O)c2ccc(C#C[C@@H](C)O)cc2O[C@@H]1CN(C)C(=O)CN(C)C	inactive	inactive	inactive
C[C@@H]1CN([C@H](C)CO)C(=O)c2cc(NC(=O)Cn3cnnn3)ccc2O[C@H]1CN(C)CC1CCCCC1	inactive	inactive	inactive
C[C@H](CO)N1C[C@H](C)[C@H](CN(C)C(=O)Nc2ccc(F)cc2)OCCCC[C@H](C)Oc2ccc(NC(=O)C3CC3)cc2C1=O	inactive	inactive	inactive
O=C(NO)c1ccncc1	inactive	inactive	inactive
COCC#Cc1cnc2c(c1)C(=O)N([C@H](C)CO)C[C@@H](C)[C@@H](CN(C)C(=O)Nc1ccc(OC)cc1)O2	inactive	inactive	inactive
C[C@H](CO)N1C[C@H](C)[C@H](CN(C)C(=O)Nc2cccc3ccccc23)Oc2c(NS(=O)(=O)c3ccc(F)cc3)cccc2C1=O	active	inactive	inactive
COc1cccc(c1)CN1C[C@]2(CCN(CC2)S(=O)(=O)C)c2c(n(c3cc(ccc23)OC)C)[C@H]1CO	inactive	inactive	inactive
COc1ccc(S(=O)(=O)Nc2ccc3c(c2)C(=O)N([C@H](C)CO)C[C@H](C)[C@H](CN(C)Cc2ccc(Cl)c(Cl)c2)OCCCC[C@H](C)O3)cc1	active	inactive	inactive
Cc1ccc(S(=O)(=O)N(C)C[C@H]2Oc3ccc(NS(=O)(=O)c4ccc(F)cc4)cc3CC(=O)N([C@@H](C)CO)C[C@H]2C)cc1	inactive	inactive	inactive
COc1ccc(CN(C)C[C@@H]2OCCCC[C@@H](C)Oc3ccc(NC(=O)NC4CCCCC4)cc3C(=O)N([C@H](C)CO)C[C@@H]2C)cc1	inactive	inactive	inactive
NCC[C@@H]1CC[C@H](NC(=O)Nc2ccc(F)cc2)[C@H](CO)O1	inactive	inactive	inactive
C/C=C/c1ccc([C@H]2[C@@H](CO)N(S(=O)(=O)CC)C23CN(C(=O)CN(C)C)C3)cc1	inactive	inactive	inactive
CC(C)(C)[S@@](=O)N1Cc2cc(C(=O)N3CCc4ccccc4C3)nc(-c3cccc(-c4ccncc4)c3)c2[C@H]1CCO	inactive	inactive	inactive
C[C@@H]1CN([C@@H](C)CO)C(=O)c2cc(NC(=O)Nc3ccccc3)ccc2O[C@H]1CN(C)Cc1ccc(Oc2ccccc2)cc1	inactive	active	inactive
CC(C)[C@@H](O)C[C@@H](C)O[C@@H]1O[C@H](CO)[C@@H](O)[C@H](O)[C@H]1O	inactive	inactive	inactive
Cc1noc(C)c1S(=O)(=O)N(C)C[C@H]1OCCCC[C@@H](C)Oc2ccc(NC(=O)Nc3ccc(F)cc3)cc2C(=O)N([C@H](C)CO)C[C@@H]1C	inactive	inactive	inactive
C[C@H]1CN([C@@H](C)CO)C(=O)Cc2cc(NS(=O)(=O)c3cccs3)ccc2O[C@@H]1CN(C)CC1CC1	inactive	inactive	inactive
Cc1noc(C)c1NC(=O)N(C)C[C@@H]1OCCCC[C@H](C)Oc2ccc(NS(=O)(=O)c3ccc(F)cc3)cc2C(=O)N([C@@H](C)CO)C[C@H]1C	inactive	inactive	inactive
C[C@@H]1CN([C@H](C)CO)C(=O)c2cc(NS(=O)(=O)c3ccccc3)ccc2O[C@@H](C)CCCCO[C@H]1CN(C)Cc1ccc(C(F)(F)F)cc1	inactive	active	inactive
C[C@@H]1CCCCO[C@H](CN(C)S(=O)(=O)c2ccc(Cl)cc2)[C@@H](C)CN([C@@H](C)CO)C(=O)c2cc(NC(=O)C3CCCCC3)ccc2O1	inactive	inactive	inactive
COc1ccc(S(=O)(=O)N(C)C[C@@H]2Oc3cc(C#CC4CC4)ccc3S(=O)(=O)N([C@H](C)CO)C[C@@H]2C)cc1	inactive	inactive	inactive
COc1ccc(C#Cc2ccc3c(c2)[C@]2(C(=O)N3)[C@H](C(=O)N3CCN(c4ncccn4)CC3)[C@H]3C(=O)O[C@H](c4ccccc4)[C@H](c4ccccc4)N3[C@@H]2c2ccc(OCCO)cc2)cc1	inactive	inactive	inactive
CCOC(=O)C(C)(C)Oc1ccc(Cl)cc1	inactive	inactive	inactive
